Patent publication US20240392031A1 (BICARA THERAPEUTICS, published 2024)

Biological target: human IL-12 receptor (hIL-12R), heterodimer of hIL-12Rβ1 and hIL-12Rβ2 (human, UniProt P42701 24-662; Q99665 24-862)
Assay: cell-based or functional assay

B1: BCA313 (Fc-IL-12), non-targeting Fc-attenuated IL-12 fusion protein (hIL-12p40 E81K, K121E, K286E) (Fc fusion)
chain 1: [human IgG1 Fc with changes left out here]GGGGSGGGGSGGGGSIWELKKDVYVVELDWYPDAPGEMVVLTCDTPEEDGITWTLDQSSEVLGSGKTLTIQVKKFGDAGQYTCHKGGEVLSHSLLLLHKKEDGIWSTDILKDQEEPKNKTFLRCEAKNYSGRFTCWWLTTISTDLTFSVKSSRGSSDPQGVTCGAATLSAERVRGDNKEYEYSVECQEDSACPAAEESLPIEVMVDAVHKLKYENYTSSFFIRDIIKPDPPKNLQLKPLKNSRQVEVSWEYPDTWSTPHSYFSLTFCVQVQGKSKREKEDRVFTDKTSATVICRKNASISVRAQDRYYSSSWSEWASVPCS
chain 2: [human IgG1 Fc with changes left out here]GGGGSGGGGSGGGGSRNLPVATPDPGMFPCLHHSQNLLRAVSNMLQKARQTLEFYPCTSEEIDHEDITKDKTSTVEACLPLELTKNESCLNSRETSFITNGSCLASRKTSFMMALCLSSIYEDLKMYQVEFKTMNAKLLMDPKRQIFLDQNMLAVIDELMQALNFNSETVPQKSSLEEPDFYKTKIKLCILLHAFRIRAVTIDRVMSYLNAS
For B1, the “HEK IL-12 Reporter Assay (Ratio of EC50)” value was 5000 ratio and the “PSTAT (CD8) flow cytometry - percent reduction at 16.9 nM” value was 82.5%.
